SMILES strings stand for the structures. Among all 39,000 compounds or so, about 220 (0.56%) showed activity. The list shows a part of the results.
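Note: static incubation at 37 °C against the wild-type strain, values averaged over two biological replicates.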

The test system of the assay is Escherichia coli K-12 BW25113. The assay is described as follows: relative growth (OD600 normalised to plate interquartile mean) (fraction); higher = less growth inhibition, active = 0.2 or less. The note with it: 50 µM; LB; incubation time: overnight (16-24 h).
In the case of `C=C(C)C1CC=C(C)CC1` (centres undefined), the relative growth was inactive: 0.975. On to `Cn1c(=O)[nH]c(=O)c2[nH]cnc21`, for which the relative growth is inactive: 0.953.

As for `C[C@@H]1CC=CC[C@H](c2cccc(Cl)c2)NC(=O)[C@@H](Cc2ccccc2)N(C)C(=O)c2ccccc2O1`, the relative growth is inactive: 1.02. With `COc1cccc(NC(=O)N2C[C@H](O)COC[C@@H]3O[C@H](CC(=O)NCc4ccccc4F)CC[C@H]32)c1`, the relative growth was inactive: 1.01. Regarding `C[C@@H]1CCCCO[C@@H](CN(C)C(=O)Nc2cccc3ccccc23)[C@H](C)CN([C@H](C)CO)C(=O)c2cc(NC(=O)Nc3ccccc3)ccc2O1`, the relative growth was inactive: 1.04. Take `C[C@H](CO)N1C[C@H](C)[C@@H](CN(C)Cc2ccc(C(=O)Nc3ccccc3N)cc2)Oc2c(NC(=O)C3CCCCC3)cccc2C1=O`: the relative growth is inactive: 1.01. On to `C[C@@H]1CCCCO[C@H](CN(C)C(=O)Nc2ccc3c(c2)OCO3)[C@@H](C)CN([C@H](C)CO)C(=O)c2cc(NC(=O)Nc3ccc(C(F)(F)F)cc3)ccc2O1`, for which the relative growth is inactive: 0.998. For the molecule `O=C(C[C@@H]1C=C[C@H](NC(=O)C2CCOCC2)[C@@H](CO)O1)NCCc1cscn1`, the relative growth was inactive: 0.988. As to `C[C@@H]1CN([C@H](C)CO)C(=O)c2cccc(NC(=O)C3CCCCC3)c2O[C@H]1CN(C)C(=O)Nc1cccc2ccccc12`, the relative growth was inactive: 0.98. Consider `C[C@H](CO)N1C[C@H](C)[C@H](CN(C)C(=O)Nc2ccc(F)cc2)OCCCC[C@H](C)Oc2ccc(NC(=O)CCCN(C)C)cc2C1=O`, for which the relative growth is inactive: 0.989. Regarding `Cc1noc(C)c1NC(=O)Nc1ccc2c(c1)CC(=O)N([C@@H](C)CO)C[C@H](C)[C@H](CN(C)S(C)(=O)=O)O2`, the relative growth was inactive: 0.982. For the molecule `C[C@@H]1CN([C@H](C)CO)C(=O)c2cc(NS(C)(=O)=O)ccc2O[C@@H]1CN(C)C(=O)Nc1ccc(C(F)(F)F)cc1`, the relative growth is inactive: 0.922.

For the molecule `Cc1ccc(S(=O)(=O)Nc2ccc3c(c2)C(=O)N([C@H](C)CO)C[C@@H](C)[C@H](CN(C)C(=O)CCC(F)(F)F)OCCCC[C@@H](C)O3)cc1`, the relative growth was inactive: 0.981. Consider `Nc1ncc(O)cn1`, for which the relative growth was inactive: 1. Regarding `C[C@@H]1CCCCO[C@@H](CN(C)S(=O)(=O)c2ccc(Cl)cc2)[C@@H](C)CN([C@H](C)CO)C(=O)c2cc(NC(=O)Nc3ccc4c(c3)OCO4)ccc2O1`, the relative growth is inactive: 0.986. As for `C[C@@H]1CN([C@H](C)CO)C(=O)c2cccc(NC(=O)Nc3ccccc3)c2O[C@@H]1CN(C)Cc1ccc(Cl)c(Cl)c1`, the relative growth was inactive: 1.08. For `C[C@@H]1CCCCO[C@H](CN(C)C(=O)NC2CCCCC2)[C@H](C)CN([C@H](C)CO)C(=O)c2cc(NC(=O)NC3CCCCC3)ccc2O1`, the relative growth was inactive: 1.01.

For the molecule `C[C@@H]1CN([C@H](C)CO)C(=O)c2cc(NC(=O)Nc3ccccc3)ccc2O[C@@H](C)CCCCO[C@@H]1CN(C)Cc1ccc2c(c1)OCO2`, the relative growth was inactive: 1.01. Then `CCC[C@@H](O)C#Cc1cnc2c(c1)C(=O)N([C@H](C)CO)C[C@H](C)[C@H](CN(C)S(=O)(=O)c1ccc(F)cc1)O2`, with inactive: 0.979; and `Cc1ccc(S(=O)(=O)N(C)C[C@@H]2Oc3ccc(NC(=O)Cn4cnnn4)cc3C(=O)N([C@@H](C)CO)C[C@H]2C)cc1`, with inactive: 1.01.

With `Cc1ccc(S(=O)(=O)Nc2cccc3c2O[C@@H](CN(C)Cc2ccc(C(F)(F)F)cc2)[C@H](C)CN([C@H](C)CO)C3=O)cc1`, the relative growth was inactive: 1.04. Then `Cc1ccc(S(=O)(=O)Nc2ccc3c(c2)C(=O)N([C@H](C)CO)C[C@@H](C)[C@@H](CN(C)S(=O)(=O)c2ccc(C)cc2)OCCCC[C@H](C)O3)cc1`, with inactive: 1.04; and `C[C@@H]1CCCCO[C@H](CN(C)S(=O)(=O)c2ccccc2)[C@@H](C)CN([C@H](C)CO)C(=O)c2cc(NC(=O)Nc3ccc(F)cc3)ccc2O1`, with inactive: 1.01. Consider `NC(=O)NO`, for which the relative growth was inactive: 1.07. `COc1ccc(-c2ccc3c(c2)O[C@@H](CN(C)CC2CCOCC2)[C@H](C)CN([C@@H](C)CO)S3(=O)=O)cc1`: the relative growth is inactive: 1.04. `Clc1ccccc1C(c1ccccc1)(c1ccccc1)n1ccnc1`: the relative growth is inactive: 1.2. Regarding `O=C(CCCCCC(=O)N/N=C/[C@H](O)[C@@H](O)[C@H](O)[C@H](O)CO)NO`, the relative growth was inactive: 0.988. Consider `C[C@@H]1CCCCO[C@H](CN(C)Cc2ccccc2)[C@@H](C)CN([C@H](C)CO)C(=O)c2cc(NC(=O)Nc3ccc4c(c3)OCO4)ccc2O1`, for which the relative growth was inactive: 0.972. With `CN(C)CCCNC(=O)[C@@]1(Cc2ccccc2I)c2ccccc2C(=O)N(C2CCCCC2)[C@H]1c1ccc(CO)cc1` the figure was inactive: 1.01. As for `COc1ccc2c3c([nH]c2c1)[C@@H](CO)N(CC1CCCCC1)C[C@]13CCN(CC1)C(=O)Nc1cccc(c1)F`, the relative growth is inactive: 0.995. Take `C[C@H](CO)N1C[C@H](C)[C@H](CN(C)CC2CCCCC2)Oc2ccc(NC(=O)CCCCCC(=O)Nc3ccccc3N)cc2C1=O`: the relative growth was inactive: 0.982.

As to `CN(C)CC(=O)N1CC2(C1)[C@H](c1ccccc1)[C@@H](CO)N2S(C)(=O)=O`, the relative growth was inactive: 0.986. Take `C[C@H](CO)N1C[C@H](C)[C@@H](CN(C)C(=O)CCCN(C)C)OCCCC[C@H](C)Oc2ccc(NC(=O)Nc3ccc(C(F)(F)F)cc3)cc2C1=O`: the relative growth was inactive: 0.928. Take `O=C(C[C@@H]1C=C[C@@H](NS(=O)(=O)c2ccc(F)cc2)[C@@H](CO)O1)NCc1ccc(Cl)c(Cl)c1`: the relative growth was inactive: 1.01.

As for `O=C(CN1CCOCC1)N[C@@H]1CC[C@H](CCNC(=O)Nc2cc(F)ccc2F)O[C@H]1CO`, the relative growth is inactive: 1.01.

Regarding `COCC#Cc1ccc2c(c1)O[C@@H](CN(C)S(=O)(=O)c1ccc(C)cc1)[C@@H](C)CN([C@@H](C)CO)S2(=O)=O`, the relative growth is inactive: 1.03. For `NCc1ccoc1`, the relative growth was inactive: 0.982.

As to `O=C(O)CCCCCCCCCCCC[C@@H]1C=CCC1`, the relative growth was inactive: 1.02. Consider `O=C(C[C@H]1CC[C@@H](NC(=O)CN2CCOCC2)[C@@H](CO)O1)NCCc1ccccc1`, for which the relative growth was inactive: 1.01. As to `COc1ccccc1S(=O)(=O)N(C)C[C@@H]1OCc2cnnn2CCCC(=O)N([C@H](C)CO)C[C@@H]1C`, the relative growth was inactive: 1. `CS(=O)(=O)N1CCc2c(-c3cnc(N)nc3)nc(N3CCOCC3)nc21`: the relative growth was inactive: 1.02. Take `C[C@H]1CN([C@@H](C)CO)C(=O)c2cccc(NS(=O)(=O)c3cn(C)cn3)c2O[C@H]1CN(C)S(=O)(=O)c1cccs1`: the relative growth is inactive: 1.01. `Cc1noc(C)c1NC(=O)N(C)C[C@@H]1OCCCC[C@@H](C)Oc2ccc(NC(=O)Nc3ccc(F)cc3)cc2C(=O)N([C@H](C)CO)C[C@@H]1C`: the relative growth is inactive: 0.99. In the case of `COc1ccc(C(=O)Nc2cccc(CN3C(=O)[C@]4(O[C@H](CC(=O)N(CCO)Cc5ccccc5)[C@@H]([Si](C)(C)c5ccc(OC)cc5)[C@@H]4C)c4ccccc43)c2)cc1`, the relative growth was inactive: 0.854. Then `COc1ccc(S(=O)(=O)N2C[C@H](O)COC[C@@H]3O[C@@H](CC(=O)NCCCN4CCOCC4)CC[C@H]32)cc1`, with inactive: 0.999; and `Cc1ccc(S(=O)(=O)N(C)C[C@@H]2Oc3ccc(NS(=O)(=O)c4ccc(F)cc4)cc3C(=O)N([C@H](C)CO)C[C@H]2C)cc1`, with inactive: 1.01.

In the case of `O=C(C[C@@H]1CC[C@@H]2[C@H](COC[C@H](O)CN2S(=O)(=O)c2cccc(F)c2)O1)NCc1ccncn1`, the relative growth is inactive: 0.997. With `C[C@@H]1CC[C@@]2(OC1)O[C@H]1C[C@H]3[C@H]4C[C@@H](O)[C@H]5C[C@@H](O[C@@H]6O[C@H](CO)[C@H](O[C@@H]7O[C@H](CO)[C@@H](O)[C@H](O[C@@H]8OC[C@@H](O)[C@H](O)[C@H]8O)[C@H]7O[C@@H]7O[C@H](CO)[C@@H](O)[C@H](O)[C@H]7O)[C@H](O)[C@H]6O)CC[C@]5(C)[C@@H]4CC[C@]3(C)[C@H]1[C@@H]2C` the figure was inactive: 0.967. On to `COc1ccc(S(=O)(=O)Nc2ccc3c(c2)C(=O)N([C@@H](C)CO)C[C@H](C)[C@H](CN(C)Cc2ccc(C(F)(F)F)cc2)OCCCC[C@H](C)O3)cc1`, for which the relative growth is inactive: 1.05. For the molecule `C[C@H]1CN([C@@H](C)CO)C(=O)c2cc(NS(=O)(=O)c3ccc(Cl)cc3)ccc2O[C@H]1CN(C)S(=O)(=O)c1cn(C)cn1`, the relative growth was inactive: 0.986. `C[C@H]1CN([C@@H](C)CO)C(=O)c2cccc(NC(=O)c3ccncc3)c2O[C@H]1CN(C)S(=O)(=O)c1cn(C)cn1`: the relative growth is inactive: 0.985. For `C[C@@H]1CCCCO[C@H](CN(C)CC2CCCCC2)[C@H](C)CN([C@H](C)CO)C(=O)c2cc(NC(=O)Nc3cccc4ccccc34)ccc2O1`, the relative growth is inactive: 0.948. Turning to `Cc1ccc(S(=O)(=O)N(C)C[C@@H]2Oc3c(NS(=O)(=O)c4cccs4)cccc3C(=O)N([C@@H](C)CO)C[C@@H]2C)cc1`, the relative growth is inactive: 1.03. With `O=C(C[C@@H]1CC[C@@H]2[C@H](COC[C@@H](O)CN2C(=O)c2ccccc2F)O1)N1CCN(c2ccccc2)CC1`, the relative growth is inactive: 0.989. For `C[C@@H]1CN([C@H](C)CO)C(=O)c2c(c3ccccc3n2C)-c2ccccc2CO[C@H]1CN(C)C(=O)[C@H](C)c1ccccc1`, the relative growth was inactive: 1.01. For the molecule `CCCC(CCC)C(=O)[O-].[Na+]`, the relative growth is inactive: 0.979. With `Cc1ccc(S(=O)(=O)Nc2ccc3c(c2)CC(=O)N([C@@H](C)CO)C[C@@H](C)[C@H](CN(C)C(=O)Nc2ccc(C(F)(F)F)cc2)O3)cc1` the figure was inactive: 0.992; with `COc1ccc(S(=O)(=O)Nc2ccc3c(c2)CC(=O)N([C@@H](C)CO)C[C@@H](C)[C@H](CN(C)C(=O)NC(C)C)O3)cc1`, inactive: 1. Take `COCC(=O)Nc1ccc2c(c1)C(=O)N(C)[C@@H]1CC[C@@H](CC(=O)NCc3ccc(OC)cc3)O[C@H]1CO2`: the relative growth was inactive: 0.975.
